Data published in publication PMC4336329 (PLoS ONE, 2015).
The campaign covered roughly 310,000 compounds. About 2,200 (0.71%) showed an effect of 50% or more. Effects have a minus sign here. Some of the results follow.

target: human ether-à-go-go-related gene (hERG) potassium channel (human, UniProt Q12809); experiment: primary screen, population patch clamp on CHO cells stably expressing hERG
Sequence (Q12809 whole entry, looked up): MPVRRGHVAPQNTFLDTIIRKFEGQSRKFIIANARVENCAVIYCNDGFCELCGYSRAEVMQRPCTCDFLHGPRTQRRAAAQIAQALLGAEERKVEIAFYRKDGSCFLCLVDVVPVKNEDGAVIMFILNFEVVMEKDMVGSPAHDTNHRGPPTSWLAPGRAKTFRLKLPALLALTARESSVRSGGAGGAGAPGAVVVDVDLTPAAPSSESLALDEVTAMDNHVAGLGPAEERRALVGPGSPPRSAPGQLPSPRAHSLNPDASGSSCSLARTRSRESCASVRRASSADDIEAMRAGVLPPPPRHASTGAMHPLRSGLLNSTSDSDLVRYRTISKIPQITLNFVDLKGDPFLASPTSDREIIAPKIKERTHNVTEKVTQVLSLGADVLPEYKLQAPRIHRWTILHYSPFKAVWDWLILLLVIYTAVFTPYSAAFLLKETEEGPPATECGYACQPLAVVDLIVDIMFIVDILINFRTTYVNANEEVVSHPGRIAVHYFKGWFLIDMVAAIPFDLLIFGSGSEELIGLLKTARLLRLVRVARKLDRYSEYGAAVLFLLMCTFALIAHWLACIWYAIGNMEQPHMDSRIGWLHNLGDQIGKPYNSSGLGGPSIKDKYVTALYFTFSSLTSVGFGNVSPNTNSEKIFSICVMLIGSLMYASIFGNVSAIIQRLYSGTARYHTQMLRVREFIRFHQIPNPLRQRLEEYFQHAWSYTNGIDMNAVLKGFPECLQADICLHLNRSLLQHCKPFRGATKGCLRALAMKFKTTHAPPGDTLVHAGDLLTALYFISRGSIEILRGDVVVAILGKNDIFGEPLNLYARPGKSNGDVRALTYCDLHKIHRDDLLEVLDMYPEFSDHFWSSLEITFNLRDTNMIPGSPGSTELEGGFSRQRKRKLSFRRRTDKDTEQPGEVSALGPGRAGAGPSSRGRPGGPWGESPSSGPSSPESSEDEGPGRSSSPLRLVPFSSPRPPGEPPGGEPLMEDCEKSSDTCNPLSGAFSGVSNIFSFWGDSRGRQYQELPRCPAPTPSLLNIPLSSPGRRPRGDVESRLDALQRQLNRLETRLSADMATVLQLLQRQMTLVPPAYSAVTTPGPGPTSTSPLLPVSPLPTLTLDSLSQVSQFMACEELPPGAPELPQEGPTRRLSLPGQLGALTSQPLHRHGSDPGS

Structure (SMILES) | hERG current change (%, negative = inhibition) at 1uM
O=C(Nc1cc(Cl)ccc1-n1cncn1)c1cc(S(=O)(=O)N2CCOCC2)ccc1F | 0.298%
O=C(CN1CCc2ccccc2C1)N1CCN(S(=O)(=O)c2ccccc2)CC1 | 3.41%
Fc1ccc2c(-c3cccc(C(F)(F)F)c3)c(-c3ccccc3)ncc2c1 | 14.9%
O=C(Cc1cccc2ccccc12)OCn1nnc2ccccc2c1=O | 11.2%
CC(=O)c1ccc(N2CCN(C(=O)CCS(=O)(=O)c3ccc4c(c3)NC(=O)CS4)CC2)cc1 | 14.7%
O=C(CSc1nnnn1-c1ccc(O)cc1)N1N=C(c2ccc3ccccc3c2)CC1c1ccccc1 (stereo not drawn) | 6.93%
CC(=O)c1sc(NC(=O)c2ccc(F)c(F)c2)nc1C | 8.87%
CC(=O)c1ccc(NC(=O)C(C)Sc2nnc(C3CC3)n2C2CC2)cc1 (stereo not drawn) | -3.04%
O=C(Oc1ccc2ccc(OC(=O)N3CCCCCC3)cc2c1)N1CCCCCC1 | -6.36%
Oc1ccc(CCc2n[nH]c(=S)n2-c2ccc(F)cc2)cc1 | 7.8%
Cc1cc(Cl)c(S(=O)(=O)NC2CCCCC2)cc1OCC(=O)Nc1nncs1 | -1.08%
Cc1ccc(CNC(=O)/C=C/c2ccc(S(=O)(=O)NCc3ccco3)cc2)cc1 | 1.46%
CC(C)(C)C(=O)Nc1cccc(C(=O)Nc2cc(C(=O)O)cc(C(=O)O)c2)c1 | 8.54%
CC(Sc1nc2ccccc2s1)C(=O)Nc1ccc2c(c1)OCO2 (stereo not drawn) | 8.7%
c1csc(-c2csc(-c3cccs3)n2)c1 | 10.4%
CC(=O)Nc1ccc2nc(SCC(=O)Nc3ccc(N4CCOCC4)c(Cl)c3)sc2c1 | 11.7%
O=C(c1ncn(Cc2ccccc2)c1C(=O)N1CCc2ccccc2C1)N1CCc2ccccc2C1 | 4.23%
Cc1c(C(=O)Nc2ccccc2[N+](=O)[O-])csc1-c1ccccc1 | -12.3%
COc1ccc(CN2CCN(Cc3ccc4cc(F)ccc4n3)CC2CCO)c(C)c1C (stereo not drawn) | 0.204%
CC(=O)NC12CC3CC(C1)CC(C(=O)N1CCN(S(=O)(=O)c4ccc(C(C)C)cc4)CC1)(C3)C2 | 16.2%
CCn1c(Oc2ccc(F)cc2)nc2c1c(=O)n(C)c(=O)n2C | 1.34%
Cn1c(=O)[nH]c(=O)c2c1ncn2CCCc1ccccc1 | 4.95%
CN(C)S(=O)(=O)c1ccc(C(=O)NCC(=O)N/N=C/c2ccccc2)cc1 | 20.7%

Structure (SMILES) | hERG current change (%, negative = inhibition) at 1uM
COc1ccc(NC(=O)Cn2nnc3ccccc32)c([N+](=O)[O-])c1 | 16.8%
C=CCNC(=O)c1cccc(NS(=O)(=O)c2ccc(Cl)cc2)c1 | 3.36%
Cn1cc(/C=N\O)nc2c(=O)n(-c3ccccc3)c(=O)nc1-2 | 14%
CC(C)(C)NCc1cc(Cl)ccc1OCc1cccs1.Cl | 6.43%
CCN1C(=O)[C@@H]2[C@@H](c3ccc(-c4cccc(Cl)c4)cc3)N3CCC[C@@]3(C(=O)OC)[C@@H]2C1=O.O=C(O)C(F)(F)F | 8.24%
Cc1cc(Cl)ccc1OCC(=O)Nc1cccnc1 | -4.54%
CCC(=O)Nc1ccc(NC(=O)Cc2ccccc2)cn1 | 8.16%
CC(C)(C)NC(=O)CN(Cc1cccs1)C(=O)c1csnn1 | 4.34%
CCCCC(=O)Nc1cnc(NC(=O)c2ccco2)cc1C | 0.528%
CCOC(=O)c1c(NC(=O)CS(=O)(=O)c2cn(CC)c3ccccc23)sc2c1CCCCC2 | 14.6%
O=C(NCc1ccc(F)cc1)C1CC(=O)N(CCc2ccccc2)C1 (stereo not drawn) | 5.84%
CN(CC(=O)Nc1ccccc1C(F)(F)F)C(=O)c1cc([N+](=O)[O-])ccc1N1CCOCC1 | 10.3%
O=C(CCNS(=O)(=O)c1cccs1)N1CCN(c2cccc(C(F)(F)F)c2)CC1 | -2.16%
CN(C(=O)Nc1ccc(Cl)cc1)n1cnc2ccccc2c1=O | 14.3%
CCCCN(CCCNC(=O)C1CCCN(S(=O)(=O)CCC)C1)Cc1ccccc1 (stereo not drawn) | -5.54%
Cc1nc2ccc(NC(=O)c3ccc(S(=O)(=O)N(C)C)cc3)cc2s1 | 7.85%
Cc1c(Cl)cccc1NC(=S)N1CCOCC1 | 3.18%
CCCCn1c(SCC(=O)Nc2nnc(C)s2)nnc1-c1ccoc1C | 2.33%
COc1cc(/C=N/Nc2ccccn2)ccc1O | 5.55%
O=C(Cc1ccc(Cl)cc1)Nc1cc(Cl)ccn1 | 4.05%
Cc1noc(/C=C/N(C)C)c1S(=O)(=O)N1CCC(C(=O)Nc2ccc(Cl)cc2)CC1 | 17.7%
Cc1ccc(CN2CC34C=CC(O3)C(C(=O)NCc3ccco3)C4C2=O)cc1 (stereo not drawn) | 6.26%
